# About 550 (1.1%) of roughly 48,000 compounds were called active. The inconclusive results got no clear call from the source; some entries with a clear call stand among them for comparison. Cut-off read from the data, not from the text of the source: active = potency below about 15 µM; inconclusive = mostly about 16 µM to 33 µM; inactive = weaker than that. No potency is given beside an inconclusive call; the fits are too rough.
# Target: Lysosomal acid glucosylceramidase (Homo sapiens) (UniProt P04062)
# Assay: Glucocerebrosidase;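 note: the screen sought inhibitors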
# Details: purified enzyme, resorufin glucoside fluorescence (screen aimed at inhibitors), 20 min
# Description: NCGC Assay Overview: Beta-glucocerebrosidase catalyzes the hydrolysis of beta-glucocerebroside to glucose and ceramide. The inherited deficiency of beta-glucocerebrosidase results in Gaucher disease, which is characterized by a wide variety of symptoms including hepatosplenomegaly, anemia, thrombocytopenia, bony lesions and bone marrow infiltration with characteristic storage cells, known as Gaucher cells. There are also forms of the disorder affecting the central nervous system. Patients with the same genotypes can manifest with diverse clinical presentations and it is believed that improper folding and trafficking of beta-glucocerbrosidase may contribute to the phenotypes observed. Low molecular weight molecules, acting as chaperones, may potentially restore trafficking of misfolded beta-glucocerebrosidase from the endoplasmic reticulum to the lysosomes, thereby enhancing functional lysosomal beta-glucocerebrosidase activity. Using normal beta-glucocerebrosidase, an assay was developed to screen for small molecule inhibitors that could potentially act as molecular chaperones on the mutant forms [developed with NIH investigator Dr. Ellen Sidransky's laboratory]. Two pro-fluorescent substrates were chosen for two screens against a small molecule library. One beta-glucocerebrosidase assay used Resorufin beta-D-Glucopyranoside (Marker Gene Technology Inc.), generating a red fluorescent product. The second assay used Fluorescein di-beta-D-Glucopyranoside, generating a blue fluorescent product. […] The IC50 values of Conduritol B Epoxide, a known glucocerebrosidase inhibitor, were determined to be 87.5 uM and 117 uM, respectively. The use of two difference pro-fluorescent substrates in the screens helped to eliminate false positives. All compounds were screened in a titration series resulting in AC50s (e.g., IC50s or EC50s).
# NCGC Assay Protocol Summary: Both enzyme and substrate were diluted in buffer composed of 50mM citric acid/KH2PO4, 10mM sodium taurocholate and 0.01% tween-20 at pH 5.9. The final concentration of the enzyme was 0.2 nM in both assays. The compound library was titrated in 7 to 15 concentrations for the primary screens with a final concentration ranging from 0.6 nM to 50 uM. This particular assay protocol is for the "red" substrate, and it was performed in 1536-well plate format as follows: Red fluorescence substrate assay: 2 uL enzyme 23 nL compound 1 uL substrate (final concentration of 30 uM) Incubate at room temperature (RT) for 20 minutes Read the plate in Viewlux plate reader (Ex=548(7) and Em=600(10)).
# Potency is the fitted concentration of half-maximal effect.
# Sequence of UniProt P04062 (P04062 whole entry, looked up): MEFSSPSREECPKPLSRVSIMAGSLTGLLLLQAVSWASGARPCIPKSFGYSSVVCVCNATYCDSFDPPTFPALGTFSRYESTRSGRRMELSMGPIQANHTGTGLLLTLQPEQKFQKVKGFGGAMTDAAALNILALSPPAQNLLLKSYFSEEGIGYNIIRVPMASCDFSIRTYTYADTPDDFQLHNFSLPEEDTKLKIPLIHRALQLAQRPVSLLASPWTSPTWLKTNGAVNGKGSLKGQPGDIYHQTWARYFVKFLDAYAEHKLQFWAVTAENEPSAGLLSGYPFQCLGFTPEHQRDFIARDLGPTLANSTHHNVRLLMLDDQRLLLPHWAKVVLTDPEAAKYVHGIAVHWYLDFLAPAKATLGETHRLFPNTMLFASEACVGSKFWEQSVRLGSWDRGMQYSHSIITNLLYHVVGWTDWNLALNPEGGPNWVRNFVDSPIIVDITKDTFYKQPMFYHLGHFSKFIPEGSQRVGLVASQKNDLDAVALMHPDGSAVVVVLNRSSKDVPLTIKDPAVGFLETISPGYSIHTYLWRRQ
row,Compound,Potency
1,Cc1csc(SCC(=O)c2cc(C)n(Cc3cccs3)c2C)n1,inactive: > 76.9 µM
2,CCC(C)NC(=O)c1cnn2c1NC(c1ccc3c(c1)OCO3)CC2C(F)(F)F (stereo not drawn),inconclusive [decreasing]
3,CCc1nnc(NC(=O)c2ccc(S(=O)(=O)NC3CCCCC3)cc2)s1,active: 9.65 µM
4,COc1ccccc1-c1nc(C#N)c(N2CCN(c3ccccc3)CC2)o1,active: 10.1 µM
5,C=CCNc1nc(-c2c(C)nc3sccn23)cs1,inconclusive [decreasing]
6,Cn1nnc(NC(=O)c2cccc(OCc3ccccc3)c2)n1,inconclusive [decreasing]
7,CC(=O)Nc1ccc(C(=O)Nc2ccc(S(=O)(=O)NCC3CCCO3)cc2)cc1 (stereo not drawn),inactive
8,CCOC(=O)c1c(-c2ccc(C)o2)csc1NC(=O)CN1CCN(CC)CC1,inconclusive [decreasing]
9,CCCOc1ccc(C(=O)Nc2ccc(N3CCN(C(C)=O)CC3)cc2)cc1,inconclusive [decreasing]
10,Clc1ccccc1Cn1nnc2c(NCCN3CCOCC3)ncnc21,inconclusive [decreasing]
11,COc1ccc(S(=O)(=O)Nc2ccc(F)c(F)c2)cc1Cl,inconclusive [decreasing]
12,COc1ccc(OCCCC(=O)Nc2nnc(C3CCCO3)s2)cc1 (stereo not drawn),inconclusive [decreasing]
13,COC(=O)c1sc2nc(-c3ccco3)ccc2c1N,inactive: > 76.9 µM
14,CCCOc1ccc2[nH]cc(C(=O)O)c(=O)c2c1,inconclusive [decreasing]
15,CCOC(=O)c1ccccc1NC(=O)c1cc2sccc2n1C,inconclusive [increasing]
16,O=C(CN1CCCCCC1)OCCN=C1NS(=O)(=O)c2ccccc21,inactive: > 76.9 µM
17,CCOC(=O)N1CCN(C(=O)c2ccc(Cn3c(=S)[nH]c4cc5c(cc4c3=O)OCO5)cc2)CC1,inconclusive [decreasing]
18,Cc1ccc(OCC(=O)Nc2cccc(-c3nnc(-c4ccccc4)o3)c2)cc1,active: 8.61 µM
19,Cc1ccc(C)c(S(=O)(=O)N2CCC(c3nc4c(nnn4Cc4ccc(F)cc4)c(=O)[nH]3)CC2)c1,active: 7.11 µM
20,CCN1CCN(c2cc(C)c3cc(NC(=O)c4ccc(Br)o4)ccc3n2)CC1,active: 5.06 µM
21,COc1ccc(OC)c(NC(=O)c2cc3sccc3n2C)c1,inactive: > 76.9 µM
22,CCOCCCNCC(=O)Nc1ccccc1N1CCOCC1,inactive: > 76.9 µM
23,CCOc1ccccc1NC(=O)Cn1c(C)cc(COC)c(C#N)c1=O,inactive: > 76.9 µM
24,O=C1CC(N2CCC(c3nc4ccccc4o3)CC2)C(=O)N1c1ccc(Cl)c(C(F)(F)F)c1 (stereo not drawn),inconclusive [decreasing]
25,CC(=O)Nc1ccccc1C(=O)N1CCc2ccccc21,inactive: > 76.9 µM
26,Cc1csc(NC(=O)Cc2nn(C)c(=O)c3ccccc23)n1,inconclusive [decreasing]

row,Compound,Potency
1,Cc1ccc(C(=O)Nc2ncc(Cc3ccc(F)cc3)s2)o1,inactive: > 76.9 µM
2,Cc1ccc(CCNC(=O)c2coc3nc4ccccc4nc23)cc1,inconclusive [increasing]
3,CCC(c1nnnn1Cc1ccco1)N(Cc1cc2cc(C)cc(C)c2[nH]c1=O)CC1CCCO1 (stereo not drawn),inactive: > 76.9 µM
4,CCN1CCN(C(=O)c2ccc(NS(=O)(=O)c3ccccc3)cc2)CC1,inconclusive [decreasing]
5,CC(C)Cn1c(SCC(=O)NC(=O)NC2CCCC2)nc2ccccc21,inconclusive [decreasing]
6,N#Cc1c2c(c(N3CCN(CCO)CC3)n3c1nc1ccccc13)CCCC2,inconclusive [decreasing]
7,CS(=O)(=O)Nc1ccc(C(=O)NCCc2ccccc2)cc1,inconclusive [decreasing]
8,CC(C)NC(=O)CSc1nnc(-c2ccc(C(C)(C)C)cc2)n1C,inactive: > 76.9 µM
9,CCc1nnc(NC(=O)CSc2nnc(Cc3ccccc3)n2-c2ccccc2)s1,inconclusive [decreasing]
10,O=C(NCc1ccccn1)C(F)(F)C(F)(F)C(=O)NCc1ccccn1,inactive: > 76.9 µM
11,CC(=O)c1c(C)n(-c2ccccc2)c2ccc(OCC(O)CN3CCOCC3)cc12 (stereo not drawn),inconclusive [decreasing]
12,O=C(Nc1ccon1)c1ccc2c(c1)OCO2,inactive: > 76.9 µM
13,COc1nc(N2CCCC2)nc(-n2cc(-c3ccccc3)nn2)n1,inactive: > 76.9 µM
14,CC(=O)Nc1nc(C)nc(-c2ccccc2)c1C(C)=O,inactive: > 76.9 µM
15,N/C(=N\O)c1ccc(NC(=O)c2ccc(Br)o2)cc1,inconclusive [decreasing]
16,CCOc1ccc2[nH]c(=O)c(C(c3nnnn3Cc3ccco3)N3CCC(C)CC3)cc2c1 (stereo not drawn),inconclusive [decreasing]
17,COc1ccc(OCC(O)Cn2c(=N)n(CCN3CCCCC3)c3ccccc32)cc1 (stereo not drawn),inactive: > 76.9 µM
18,COC(=O)c1ccc(OC)c(CSc2nnc(COc3ccccc3)o2)c1,inactive: > 76.9 µM
19,Cn1c(/N=C/c2c[nH]c3ccccc23)nc2ccccc21,inconclusive [decreasing]
20,COC(=O)C1=C(CSCc2ccco2)NC(=O)NC1c1cc(C)ccc1C (stereo not drawn),inactive: > 76.9 µM
21,Cn1c(SCC2CCCCC2)nnc1-c1ccncc1,inconclusive [decreasing]
22,O=c1c(-c2ccc(Br)cc2)coc2c(CN3CCOCC3)c(O)ccc12,inconclusive [decreasing]
23,c1cn2cc(-c3ccc4c(c3)OCO4)nc2s1,inactive: > 76.9 µM
24,O=C(Cc1cccs1)N1CCC(c2nc3c(nnn3Cc3ccc(F)cc3)c(=O)[nH]2)CC1,inconclusive [decreasing]
25,Cc1cccc(Nc2nc(N)nc(CN3CCN(c4ccccc4)CC3)n2)c1,active: 4.34 µM
26,CCN(CC)S(=O)(=O)c1ccc2[nH]cc(C(=O)NCCC3=CCCCC3)c(=O)c2c1,inconclusive [decreasing]

row,Compound,Potency
1,CCOCCCNCC(=O)N1CCN(S(=O)(=O)c2ccc(C)cc2)CC1,inactive: > 76.9 µM
2,CCN(C1CCCCC1)S(=O)(=O)c1ccc(S(=O)(=O)NCCc2ccncc2)cc1,inconclusive [decreasing]
3,C=CCNc1ncnc2c1[nH]c1ccc(C)cc12,inconclusive [decreasing]
4,Cc1cc(NC(=O)c2ccc(Cn3nc(C)c(Br)c3C)o2)no1,inconclusive [decreasing]
5,COc1ccc(S(=O)(=O)N(CCCN2CCOCC2)Cc2ccc(OC)c(OC)c2)cc1,inconclusive [decreasing]
6,CCc1c(C)nc(SCC(=O)c2ccc(C)c(C)c2)[nH]c1=O,inconclusive [decreasing]
7,CN1CCN(C(=O)c2c(O)c3cccc4c3n(c2=O)CCC4)CC1,inactive: > 76.9 µM
8,CCNc1nc(N)c(C(=O)c2ccc(Cl)s2)s1,inconclusive [increasing]
9,COc1ccc(C2c3c(oc4ccccc4c3=O)C(=O)N2CCN2CCOCC2)cc1OC (stereo not drawn),inconclusive [decreasing]
10,CCS(=O)(=O)N1CCC(C(=O)Nc2cc(Cl)ccc2O)CC1,active: 13.8 µM
11,Cc1cc2occ(CC(=O)NC3=NCCS3)c2cc1C(C)C,inconclusive [decreasing]
12,COc1cc(OC)c(C2CC(=O)N3CN(c4ccccc4)CSC3=C2C#N)cc1OC (stereo not drawn),inconclusive [decreasing]
13,CCN1CCN(c2c(Cl)cccc2NC(=O)c2ccc(Br)o2)CC1,inconclusive [decreasing]
14,O=C(Cn1cc(C(=O)c2ccco2)c2ccccc21)NC1CCCC1,inconclusive [decreasing]
15,C=CCOC(=O)C1=C(C)NC(SCC(=O)NC(=O)OCC)=C(C#N)C1c1cccnc1 (stereo not drawn),inconclusive [decreasing]
16,COc1ccc(CNc2nc(-c3cccnc3)nn2C(=O)c2ccco2)cc1,active: 11.4 µM
17,Cc1nn(C)c(C)c1S(=O)(=O)NC1CCCc2ccccc21 (stereo not drawn),inconclusive [decreasing]
18,COC(=O)c1c(NC(=O)c2ccc(S(=O)(=O)N3CCOCC3)cc2)sc2c1CCN(C)C2,inconclusive [decreasing]
19,COC(=O)c1cc2c(cc1NC(=O)CSCCc1ccccn1)OCO2,inconclusive [decreasing]
20,CCCCc1nnc(SCCSc2nnc(CCCC)n2N)n1N,inactive: > 76.9 µM
21,Clc1ccc2nc(NC3=NCN(CCN4CCOCC4)CN3)nc(-c3ccccc3)c2c1,inactive: > 76.9 µM
22,Cn1ncc2c(Nc3ccc4ccccc4c3)ncnc21,inconclusive [decreasing]
23,COc1cc2c(=O)n(Cc3ccccc3)c(=O)n(CC(=O)NCc3ccco3)c2cc1OC,inactive: > 76.9 µM
24,CC(C)(C)NC(=O)C(c1ccncc1)N(Cc1cccs1)C(=O)Cn1nnc(-c2cccs2)n1 (stereo not drawn),inconclusive [decreasing]
25,N#CC1=C2SCN(Cc3ccco3)CN2C(=O)CC1c1cccc2ccccc12 (stereo not drawn),inconclusive [decreasing]
26,NC1=NC(c2cccc(O)c2)n2c(nc3ccccc32)N1 (stereo not drawn),inconclusive [decreasing]
